# Source: PubChem BioAssay AID686978 (National Center for Advancing Translational Sciences (NCATS), 2013)
# Among all 420,000 compounds or so, about 64,000 (15%) were called active. Inconclusive means that the source gave no clear call. Such entries were picked first, then a sample of the others. Calls come from the whole dose curve; as a rule, active = well fitted inhibition curve with a large enough effect; inconclusive = small, poorly fitted or top-dose-only effect; inactive = flat fitted curve, though single readings scatter. No potency is given beside an inconclusive call; the fits are too rough.
# Experiment: qHTS for Inhibitors of human tyrosyl-DNA phosphodiesterase 1 (TDP1): qHTS in cells in absence of CPT; note: nearly all actives have a fitted effect of over 55% in size
# Conditions: DT40 Tdp1-/- hTDP1 cells, no CPT, ATP luminescence, 48 h; activity change, negative = growth inhibition: at 46.2 µM (top of the series) unless noted
# Summary of the method: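 Chicken DT40 Tdp1-/- cells stably complemented with human TDP1 were seeded at 400 cells/well with DMSO in place of 20 nM camptothecin. After compound pinning, cells grew at least 48 hr at 37 °C; viability read by CellTiter-Glo luminescence.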
# % is set by controls: 0 for no effect and ±100 for the full control effect; potency is the fitted concentration of half-maximal effect; tags give direction and shape of the fitted curve.
SMILES,Potency,"activity change, negative = growth inhibition"
CC(C)OP(=O)(OC(C)C)C(Nc1ccccc1)c1cccc([N+](=O)[O-])c1 (configuration not stated),"inconclusive [inhibitor, single point]",–
CC(C)(C)Nc1nc2nonc2nc1NC(C)(C)C,"inconclusive [inhibitor, single point]",–
CCN1CCN(Cc2nnc(-c3ccccc3)o2)CC1,"inconclusive [inhibitor, partial curve, poor fit]",–
COCCN1C(=O)/C(=C/c2ccc(OCc3ccc(C(=O)O)cc3)c(OC)c2)SC1=Nc1ccccc1,active: 20.6 µM,–
CCO[C@H]1OC(C(=O)N2CCN(Cc3ccc4c(c3)OCO4)CC2)=C[C@@H](c2ccccc2)[C@@H]1CCCO,"inconclusive [inhibitor, single point]",–
O=C(N/C(=C\c1ccc(Br)cc1)c1nc2ccccc2[nH]1)c1ccco1,"inconclusive [inhibitor, single point]",–
COc1ccc(CCNC(=O)CN(c2cc(C)cc(C)c2)S(=O)(=O)c2c(C)noc2C)cc1OC,active: 18.4 µM,–
COc1ccc(/C(N)=N/OC(=O)c2cccc([N+](=O)[O-])c2C)cc1OC,–,inconclusive: -30.9% [inhibitor]
Cc1ccccc1C(=O)NC1CCN(CC(=O)Nc2ccccc2Cl)CC1,"inconclusive [inhibitor, single point]",–
C/C(=N\N1C(C)CCCC1C)c1ccccc1O (configuration not stated),"inconclusive [inhibitor, partial curve]",–
Cc1cc(NO)c(C(C)C)cc1N=O,active: 10.3 µM,–
O=C(COC(=O)c1ccc2c(c1Cl)C(=O)c1ccccc1C2=O)NC1CC1,"inconclusive [inhibitor, single point]",–
COc1ccc(-c2coc3cc(OC(C)=O)cc(OC(C)=O)c3c2=O)cc1,inactive,–
O=C(CN1C(=O)/C(=C/c2ccccc2F)Sc2ccccc21)NCC1CCCO1 (configuration not stated),"inconclusive [inhibitor, partial curve]",–
c1cncc(-c2nnc3sc(C4CCCCC4)nn23)c1,"inconclusive [inhibitor, partial curve, poor fit]",–
C/C(Cc1ccccc1)=N\NC(=O)c1cc(C(C)(C)C)[nH]n1,inactive,–
COc1ccc([C@H]2/C=C\CN(C(=O)c3ccc(C)cc3)[C@@H](C)C(=O)N2Cc2ccc(F)cc2)cc1,active: 20.6 µM,–
CC1CCCCC1NC(=O)/C(C#N)=C/c1ccc2c(c1)OCCO2 (configuration not stated),"inconclusive [inhibitor, single point]",–
CCCC(=O)Nc1ccc(NC(=S)NC(=O)c2ccccc2[N+](=O)[O-])cc1,active: 29.1 µM,–
Cc1ccc(NC(=O)C2CCN(C(=O)c3cnn(-c4ccccc4)c3-n3cccc3)CC2)cc1C,"inconclusive [inhibitor, single point]",–
CCOc1ccc(Nc2nc(N)c([N+](=O)[O-])c(NCc3ccccc3)n2)cc1,"inconclusive [inhibitor, single point]",–
CCNC(=S)N(CCc1ccccc1C)Cc1cc2cc(OC)c(OC)cc2[nH]c1=O,inactive,–
CCN1CCN(c2nc3c(c(=O)[nH]c(=O)n3C)n2CCCc2ccccc2)CC1,inactive,–
Cc1cc(C(=O)N2CCC2(C)C(=O)O)nn1C(C)(C)C (configuration not stated),inactive,–

SMILES,Potency,"activity change, negative = growth inhibition"
CC(C)c1ccc(NC(=O)CCNS(=O)(=O)c2ccc3c(c2)oc(=O)n3C)cc1,inactive,–
CCN(CC)S(=O)(=O)c1cc(NC(=O)C(=O)c2c(-c3ccccc3)cc3ccccn23)ccc1C,active: 23.1 µM,–
O=C(CN1CCCN(Cc2cccc(F)c2)S1(=O)=O)Nc1ccc2c(c1)OCCO2,"inconclusive [inhibitor, partial curve]",–
CC1=C/C(=C(/c2cc(C)c(O)c(Br)c2)c2ccccc2S(=O)(=O)O)C=C(Br)C1=O,"inconclusive [inhibitor, partial curve, poor fit]",–
COc1ccc(CNC(=O)c2cccnc2)cc1,inactive,–
C=CCNC(=O)c1c(CS(=O)(=O)c2ccccc2)noc1C(=O)NCc1ccccc1,inactive,–
O=C(NCC(c1cccnc1)N1CCc2ccccc2C1)C(=O)Nc1ccc(F)cc1F (configuration not stated),active: 18.4 µM,–
COc1ccc(OC)c(S(=O)(=O)NCC(c2ccco2)N2CCc3ccccc32)c1 (configuration not stated),"inconclusive [inhibitor, single point]",–
CC(C)=NNc1nc(-c2ccccc2)cs1,–,inconclusive: -32.5% [inhibitor]
CC(C)OC(=O)CCCCCN1C(=O)CSC1=S,inactive,–
CC(=O)N1N=C(c2ccc([N+](=O)[O-])cc2)CC1c1ccccc1Cl (configuration not stated),"inconclusive [inhibitor, single point]",–
CCCNS(=O)(=O)c1ccc(OCC(=O)NCC2CCCO2)cc1 (configuration not stated),inactive,–
CC(C)C[C@H]1CNC(=O)C(=O)N1C[C@@H]1CCCN1C[C@H](Cc1ccccc1)N1C[C@H](CC(C)C)N(CCc2ccccc2)C(=O)C1=O,"inconclusive [inhibitor, single point]",–
COC(=O)c1c(C)nn(-c2ccccc2)c1-n1cccc1,"inconclusive [inhibitor, partial curve]",–
COc1cc(CN(C)CC2CCCN(CCc3cccc(C(F)(F)F)c3)C2)ccc1O (configuration not stated),active: 23.1 µM,–
CCCCCCCCN1C(=O)[C@H](CC(=O)NCCCC)C[C@@]2(C(=O)OC)CC(C)(C)CC=C12,active: 11.6 µM,–
Cc1ccc(-c2noc(CN3CCN(Cc4ccccc4)CC3)n2)cc1,"inconclusive [inhibitor, partial curve]",–
COC(=O)C1=CN(c2ccc(OC)cc2)C(N)=C(C#N)C1c1ccccc1F (configuration not stated),active: 13 µM,–
CCCC1=Nc2cc(C(=O)NCCCOC(C)C)ccc2Sc2ccccc21,active: 4.11 µM,–
Cc1ccc(CN2CCN(c3ncccn3)CC2)o1,inactive,–
O=C(Nc1ccccc1)N(O)c1ccc(Cl)cc1,active: 29.1 µM,–
CCOc1ccc(OCC)c(Nc2cc(C)nc3nc(C)nn23)c1,"inconclusive [inhibitor, partial curve, poor fit]",–
CNN/C(N=Cc1ccc([N+](=O)[O-])s1)=N\S(=O)(=O)c1cc(C)c(Cl)cc1SCc1ccccc1,active: 1.3 µM,–
Cc1cc(/C=N/n2cnnc2)c(C)n1-c1ccc2c(c1)OCO2,inactive,–

SMILES,Potency,"activity change, negative = growth inhibition"
O=[N+]([O-])c1cccc(-c2ccc(CN3CCN(c4ccccc4)CC3)o2)c1,"inconclusive [inhibitor, single point]",–
COc1cc(OC)c(-c2nn3c(C4CCCCC4)nnc3s2)cc1OC,"inconclusive [inhibitor, single point]",–
CC(=O)c1c(C)[nH]c(C(=O)Nc2cccc3ccccc23)c1C,"inconclusive [inhibitor, partial curve, poor fit]",–
O=C(c1ccc2c(c1)N(Cc1cccc(Cl)c1)C(=O)c1ccccc1S2(=O)=O)N1CCCCCC1,active: 23.1 µM,–
Cc1cccc(CCNC(=O)c2nn(C)c3c2CSc2ccccc2-3)c1,"inconclusive [inhibitor, partial curve, poor fit]",–
CCNC(=S)NNC(=O)c1csc2c1CCCC2,inactive,–
O=C(NCCc1ccccc1)/C(=C\c1ccccc1)NC(=O)c1ccco1,inactive,–
Cc1ccc(NC(=O)C(C)OC(=O)/C=C/c2ccccc2)cc1 (configuration not stated),"inconclusive [inhibitor, single point]",–
CCOc1cc(CNc2ccc(S(N)(=O)=O)cc2)cc(Cl)c1OC,"inconclusive [inhibitor, single point]",–
O=C(NCc1ccccc1C(F)(F)F)C1CCC(=O)N(C2CC2)C1 (configuration not stated),inactive,–
COC(=O)Cc1[nH]n(-c2nc3ccccc3s2)c(=O)c1C(C)=Nc1ccc(Cl)cc1,active: 20.6 µM,–
CC(C)CSc1nc2ccccc2c(=O)[nH]1,"inconclusive [inhibitor, single point]",–
Cc1onc(-c2c(Cl)cccc2Cl)c1C(=O)N1C=CC(C(F)(F)F)=NCC1,"inconclusive [inhibitor, single point]",–
Cc1noc(C)c1CN1C(=O)c2cccc([N+](=O)[O-])c2C1=O,inactive,–
CCCCOC(=O)c1c(C)oc2ccc(NS(=O)(=O)c3ccc(F)cc3C)cc12,"inconclusive [inhibitor, single point]",–
COc1ccc(-n2nnnc2S(=O)(=O)Cc2ccc(C(=O)O)cc2)cc1,active: 16.4 µM,–
CCOc1ccc(CN(C(=O)c2cc(=O)c3cc(Cl)ccc3o2)C2CCS(=O)(=O)C2)cc1 (configuration not stated),"inconclusive [inhibitor, full curve]",–
c1coc(CNc2ncnc3c2oc2ccccc23)c1,"inconclusive [inhibitor, partial curve]",–
O=C(/C(C=Nc1ccc(F)cc1)=C(/O)c1ccco1)C(F)(F)F,inactive,–
CCOc1cc(/C=N/NC(=O)C(C)Sc2ccccc2)ccc1O (configuration not stated),–,inconclusive: -32.4% [inhibitor]
Cc1noc(C)c1C(=O)N1CCC2(CC1)CN(c1cccc(-c3ccccc3)c1)C2,active: 20.6 µM,–
NC(=O)C(c1ccc(Cl)cc1Cl)c1ncc(C(F)(F)F)cc1Cl (configuration not stated),"inconclusive [inhibitor, single point]",–
CCCc1cc(C(=O)Cc2ccc(F)cc2)c(O)cc1O,"inconclusive [inhibitor, single point]",–
Cc1cc(F)ccc1-c1cc(C(=O)Nc2ccccc2)[nH]n1,"inconclusive [inhibitor, single point]",–
